Measurements taken from paper PMC4336329 (PLoS ONE, 2015).
Hit rate of the full screen: of about 310,000 compounds, about 14,000 (4.5%) showed an effect of 50% or more. Effects have a minus sign here. The list shows a part of the results.

molecular target: human ether-à-go-go-related gene (hERG) potassium channel (human, UniProt Q12809); assay: primary screen, population patch clamp on CHO cells stably expressing hERG
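Note: peak tail current of the secondary pulse compared with the same well before compound.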

Sequence of human ether-à-go-go-related gene (hERG) potassium channel (Q12809 whole entry, looked up): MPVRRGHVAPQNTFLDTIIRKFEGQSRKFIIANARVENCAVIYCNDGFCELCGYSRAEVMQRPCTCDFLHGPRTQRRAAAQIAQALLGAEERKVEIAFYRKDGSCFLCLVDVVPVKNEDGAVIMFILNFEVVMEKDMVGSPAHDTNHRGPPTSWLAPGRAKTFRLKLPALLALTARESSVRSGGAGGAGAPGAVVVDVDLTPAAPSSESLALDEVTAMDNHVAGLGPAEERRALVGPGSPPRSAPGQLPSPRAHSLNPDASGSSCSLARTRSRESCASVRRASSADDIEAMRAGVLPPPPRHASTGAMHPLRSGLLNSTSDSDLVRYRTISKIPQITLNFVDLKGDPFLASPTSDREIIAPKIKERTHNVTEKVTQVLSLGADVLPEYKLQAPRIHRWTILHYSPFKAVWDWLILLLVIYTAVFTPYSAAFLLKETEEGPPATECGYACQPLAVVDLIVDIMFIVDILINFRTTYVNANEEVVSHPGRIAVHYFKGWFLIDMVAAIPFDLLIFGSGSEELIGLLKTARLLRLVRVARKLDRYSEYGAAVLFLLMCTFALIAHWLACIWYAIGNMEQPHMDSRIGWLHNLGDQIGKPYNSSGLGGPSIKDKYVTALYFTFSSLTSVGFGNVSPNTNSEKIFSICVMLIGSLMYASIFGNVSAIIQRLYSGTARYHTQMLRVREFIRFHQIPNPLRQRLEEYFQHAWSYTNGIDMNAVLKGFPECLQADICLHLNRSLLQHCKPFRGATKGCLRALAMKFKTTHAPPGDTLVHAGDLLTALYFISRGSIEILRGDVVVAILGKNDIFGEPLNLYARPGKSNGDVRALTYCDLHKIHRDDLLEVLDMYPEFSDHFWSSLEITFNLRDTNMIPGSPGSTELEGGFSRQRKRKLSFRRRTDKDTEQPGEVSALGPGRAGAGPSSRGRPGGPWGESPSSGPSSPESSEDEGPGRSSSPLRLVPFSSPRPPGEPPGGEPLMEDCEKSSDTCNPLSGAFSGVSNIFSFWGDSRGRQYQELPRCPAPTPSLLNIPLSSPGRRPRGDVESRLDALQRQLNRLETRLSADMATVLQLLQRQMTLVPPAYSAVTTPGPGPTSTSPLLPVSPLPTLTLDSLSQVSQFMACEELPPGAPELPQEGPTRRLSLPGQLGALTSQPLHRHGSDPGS

Row | Structure (SMILES) | hERG current change (%, negative = inhibition) at 10uM [%]
1 | CCn1c(SCC(=O)Nc2ccc3c(c2)OCO3)nc2ccccc21 | 4.47
2 | Cn1c(O)c(C2=c3ccccc3=NC2=O)sc1=Nc1ccc(Cl)cc1 | -8.62
3 | COc1ccc(/C=N/Nc2nc3ccccc3o2)cc1OC | 13.3
4 | COc1ccc(C2/C=C\CN(Cc3ccco3)CC(=O)N2Cc2ccc(F)cc2)cc1 (stereo not shown) | -1.92
5 | CN1CCCN(C(=O)CC2(CC(=O)O)CCCC2)CC1.Cl | 8.11
6 | CCCCCCCCCCOC(=O)c1csc2nnsc12 | 4.04
7 | CCN(CC(=O)Nc1ccccc1OC)C(=O)c1cccc(-n2cccc2)c1 | -27.2
8 | Cn1c(=O)c2c(-c3ccccc3)n3c4ccccc4ncc3c2n(C)c1=O | -6.9
9 | CC(C)COC(=O)C1[C@H]2C(=O)N(Cc3cccs3)C[C@]23C=C[C@H]1O3 (stereo partly shown) | 0.82
10 | CCCCOc1cccc(C(=O)N(Cc2ccco2)C2CCS(=O)(=O)C2)c1 (stereo not shown) | -12.5
11 | CN(C)/C=C/C(=O)c1cccc(Oc2ncccn2)c1 | 7.53
12 | COc1ccc(N2CC(C(=O)OCC(=O)NCc3ccccc3)CC2=O)cc1 (stereo not shown) | -39.3
13 | Cc1ccc(N(C(C)C(=O)Nc2ccc(S(=O)(=O)N3CCOCC3)cc2)S(C)(=O)=O)cc1C (stereo not shown) | 1.77
14 | COc1ccc(C2=NS(=O)(=O)N(C)C(C(=O)N3CCCCC3C)=C2)cc1 (stereo not shown) | -17
15 | CC(C)NS(=O)(=O)c1ccc(OCC(=O)Nc2cccc(F)c2)cc1 | -11.1
16 | N#Cc1ccc(C(=O)Nc2ccc([N+](=O)[O-])cc2)c(F)c1 | 4.42
17 | CCOC(=O)N1CCN(C(=O)Cc2cccs2)CC1 | 11
18 | Cc1occc1-c1nnc(SCC(=O)NCCc2ccccc2)n1C(C)c1ccccc1 (stereo not shown) | -31.8
19 | Cc1ccc(OCCCCN2CCC(C)CC2)cc1.O=C(O)C(=O)O | -23.4
20 | CCCN1Cc2cccc(C(=O)Nc3ccc4c(c3)OCCO4)c2C1=O | 6.32
21 | CCOc1ncccc1C(=O)N1CCCSC1=Nc1ccc(C(C)=O)cc1 | 9.27
22 | CS(C)=O.Cc1[nH]c2ccccc2c1/C=N/Nc1ccc([N+](=O)[O-])cc1S(=O)(=O)Nc1ccc(Cl)cc1 | 14.8

Row | Structure (SMILES) | hERG current change (%, negative = inhibition) at 10uM [%]
23 | CC(C)c1ccc(CNc2c([N+](=O)[O-])c(=O)oc3ccccc23)cc1 | 14.2
24 | Cc1cc(C(=O)N2CCN(c3cccc(Cl)c3)CC2)c(C)o1 | -12.5
25 | COc1cc(/C=C2\SC(=Nc3ccc(Cl)c(C(=O)O)c3)NC2=O)c(Br)c(Br)c1O | 12.9
26 | NNC(=O)c1ccc(COc2cccc3cccnc23)cc1 | 18
27 | CCc1ccc(NC(=O)C2CCN(S(=O)(=O)c3c(C)noc3/C=C/N(C)C)CC2)cc1 | 3.89
28 | Cc1nn(Cc2ccc(Cl)cc2Cl)c(C)c1NC(=O)C1C2CCC(O2)C1C(=O)O (stereo not shown) | -9.88
29 | Cc1ccc(S(=O)(=O)N2CCN(CCOc3cccc(C)c3)CC2)cc1 | -4.07
30 | CCOC(=O)C(=O)/C(=C\N(C)C)c1onc(-c2ccccc2)c1C(=O)OC | 11.9
31 | CCS(=O)(=O)N1CCC(N2CCN(c3ccccc3)CC2)CC1 | -10.9
32 | Cc1ccc(S(=O)(=O)N2CCN(C(=O)c3ccnn3C)CC2)cc1C | 8.37
33 | O=C(O)c1ccc(N/N=C/c2c[nH]c3ccccc23)cc1 | -18.1
34 | O=C(COC(=O)c1ccccc1)Nc1ccccc1Sc1ccccc1 | 4.88
35 | COc1ccc(-c2csc(NC(=O)c3ccc(N4C(=O)CCC4=O)cc3)n2)cc1 | 43.8
36 | Cc1c(Cl)cccc1NC(=S)NC1CCCC1 | -5.1
37 | COc1cc(NC(=O)c2ccco2)c(C(=O)OCC(=O)c2c[nH]c3ccccc23)cc1OC | 25.9
38 | Cc1cc(-c2nn(-c3ccccc3F)cc2CN(C)CC(O)CO)c(C)s1 (stereo not shown) | -22.3
39 | Cc1ccc(N(Cc2ccccc2F)S(C)(=O)=O)cc1C | -6.87
40 | CCO[C@H]1OC(C(N)=O)=C[C@@H](c2ccccc2)[C@@H]1CCCO | 2.91
41 | Cn1c(CNc2nc3ccccc3n2CCN2CCCCC2)nc2ccccc21 | -65
42 | CC(NCCO)C(=O)C12CC3CC(CC(C3)C1)C2.Cl (stereo not shown) | 13.1
43 | O=C(COc1ccc(Cl)cc1)NCc1ccc(F)cc1 | -6.94
44 | COc1ccc(NC(C)=O)cc1NC(=O)CSc1nnc(-c2ccccn2)n1C | -7.69

Row | Structure (SMILES) | hERG current change (%, negative = inhibition) at 10uM [%]
45 | Cc1ccccc1NC(=O)Cn1cnc2c(oc3ccccc32)c1=O | 11.6
46 | O=C(CSc1nnc(-c2ccc(O)cc2)n1Cc1ccco1)N1CCc2ccccc2C1 | -44.1
47 | COCCn1c(=S)[nH]c2cc(C(=O)NCCCN3CCOCC3)ccc2c1=O | 8.93
48 | CC(=O)NC(=S)Nc1ccc(NC(=O)c2cccnc2)cc1 | 10.1
49 | CCCc1cc(=O)oc2c(C)c(OCC(=O)NCCCn3ccnc3)ccc12 | -75.3
50 | NS(=O)(=O)c1ccc(CCNC(=O)Cc2ccc(Cl)cc2)cc1 | 12.2
51 | COc1ccc(CNC(=O)CCCN2C(=O)NC3(CCCC3)C2=O)cc1 | -12
52 | c1ccc(Cn2nnc3c(NCC4CCCO4)ncnc32)cc1 (stereo not shown) | 4.56
53 | O=C(c1ccc(F)cc1)N1C2CCC1CC(O)(c1ccccc1F)C2 (stereo not shown) | -2.26
54 | CC(C)(C)Nc1nc(Cl)nc(NCCN2CCOCC2)n1 | 7.39
55 | Cc1ccc(NC(=O)c2nc(S(=O)(=O)Cc3ccccc3C)ncc2Cl)cc1C | 2.81
56 | Cc1cc(C)cc(NC(=O)c2cc(S(=O)(=O)NCc3ccco3)ccc2F)c1 | -6.51
57 | C/C(=N\NC(=O)c1cccc(Br)c1)c1cccnc1 | -1.53
58 | Cc1cccc2c(N)c3c(nc12)N(C)CC3.O=C(O)C(=O)O | -23.1
59 | COc1cc(/C=C2/N=C(c3ccccc3F)OC2=O)cc(Cl)c1OS(C)(=O)=O | 10.3
60 | O=C(NN=C1CCN(Cc2ccccc2)CC1)c1cccc(S(=O)(=O)Nc2ccccc2Cl)c1 | -4.72
61 | CCOc1ccc(S(=O)(=O)n2ccnc2C)cc1 | 14.5
62 | CCn1c(Cc2ccccc2)n[nH]c1=S | 1.82
63 | Cc1ccc(-c2nnc(SC(C)C#N)n2N)cc1 (stereo not shown) | 18.1
64 | C=CCN1C(=O)C(CC(=O)NCC)SC1=Nc1ccc(S(N)(=O)=O)cc1 (stereo not shown) | 17.1
65 | Fc1ccc(CSc2ncnc3ccccc23)cc1 | 10.6
66 | CNC(=S)NCCc1ccc(OC)c(OC)c1 | -1.19

Row | Structure (SMILES) | hERG current change (%, negative = inhibition) at 10uM [%]
67 | COc1ccccc1-c1cnn2c(NCc3ccccc3)cc(C)nc12 | 23.3
68 | COc1c(O)cccc1-c1nnn(CCC(=O)OCC(=O)c2ccccc2)n1 | 26.7
69 | COc1ccccc1N(CC(=O)NCCc1ccccc1)C(=O)CCC(=O)Nc1nccs1 | -1.5
70 | COc1ccc(C(=O)Nc2ccc(Cl)cc2C(=O)NCCO)cc1 | -53.8
71 | Cn1ccs/c1=N\S(=O)(=O)c1ccc(F)cc1 | 8.92
72 | COc1ccccc1CNS(=O)(=O)c1c(C(=O)N2CCCC2)c(C)n(C)c1C | 12.9
73 | CC1CCN(S(=O)(=O)c2cccc(S(=O)(=O)N3CCCC3)c2)CC1 | -34.6
74 | Cc1cccc(N(C)C(=S)Oc2ccc3ccccc3c2)c1 | 17.2
75 | O=C(c1ccc2nc(N3CCCCC3)sc2c1)N1CCN(Cc2ccc3c(c2)OCO3)CC1 | -22.9
76 | FC(F)(F)c1cccc(N2CCN(C(=S)NCC3CCCO3)CC2)c1 (stereo not shown) | -1.81
77 | CC(C)(C)S(=O)(=O)c1cnc2c(-c3ccsc3)cnn2c1N | 20.6
78 | Cc1ccc(N2C(=O)c3ccccc3C2Nc2ccc(S(=O)(=O)N3CCOCC3)cc2)nc1 (stereo not shown) | -11
79 | CCCCOc1ncnc2c1[nH]c1ccc(OCC)cc12 | 18.7
80 | COC(=O)/C=C1/SC(=NC(=O)c2cccc([N+](=O)[O-])c2)NC1=O | 18.7
81 | Cc1cc(C(=O)C[N+]2(C)CCOCC2)c(C)n1-c1ccc(Br)cc1.[Cl-] | 20.6
82 | O=c1[nH][nH]c(-c2ccccc2)c1C=Nc1ccccc1 | 7.71
83 | O=C(Nc1nc2cc3c(cc2s1)OCCO3)C1=COCCO1 | 3.42
84 | O=C(c1ccco1)N1CCN(C(=O)C2CCN(S(=O)(=O)c3cccc4nsnc34)CC2)CC1 | -15.2
85 | O=C(N1CCOCC1)N1CCCN(C(=O)N2CCOCC2)CC1 | 0.257
86 | Cc1cc(C)cc(N(CC(=O)NC2CCCCC2)C(=O)c2csnn2)c1 | 3.84
87 | CCCCNC(=O)C1CCCN1C(=O)Nc1ccccc1 (stereo not shown) | 0.343
88 | CS(=O)(=O)N(CC(=O)N1CCN(Cc2ccccc2)CC1)c1cccc([N+](=O)[O-])c1 | -75.5
